# The supplement of paper PMC12582362
# Structures can show the parent of a compound that is named as a salt. Hit rate of the full screen: of about 1,500 compounds, about 30 (2%) showed activity.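 The calls were made as follows: active = robust z-score below -2; a few such results were not called.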 The list shows a part of the results.
# Tested on: optoTopBP1 Flp-In 293 T-REx (HEK293) cells
# Assay: light-induced TopBP1 condensate (nuclear foci) count, plate-normalised robust z-score vs non-control wells; higher = more TopBP1 condensates (negative = condensation inhibitor), active = hit call of the paper
# Settings: 10 µM; incubation time 2 h
row,Compound,light-induced TopBP1 condensate (z-score)
1,Nc1c(CC(=O)O)cccc1C(=O)c1ccc(Br)cc1 [Bromfenac],inactive: -1.27
2,CCCC(CCC)C(=O)O[C@H]1C[C@H]2CC[C@@H](C1)[N+]2(C)C [Anisotropine Methylbromide],inactive: 0.12
3,CN(C)CCCSC(=N)N [Dimaprit dihydrochloride],inactive: 1.17
4,C[C@H](Cc1cc2c(c(C(N)=O)c1)N(CCCO)CC2)NCCOc1ccccc1OCC(F)(F)F [Silodosin],inactive: -0.709
5,Cc1onc(-c2c(F)cccc2Cl)c1C(=O)N[C@@H]1C(=O)N2[C@@H]1SC(C)(C)[C@@H]2C(=O)O [Flucloxacillin sodium],inactive: 1.42
6,O=C(NCCN1CCOCC1)c1ccc(Cl)cc1 [Moclobemide],inactive: 0.419
7,NS(=O)(=O)c1cc(Cl)c(Cl)c(S(N)(=O)=O)c1 [Dichlorphenamide],inactive: 0.657
8,CCN1CCCC(OC(=O)C(c2ccccc2)c2ccccc2)C1 (stereo not given) [Piperidolate hydrochloride],inactive: 0.54
9,C[C@@H]1C[C@H]2[C@@H]3C[C@H](F)C4=CC(=O)C=C[C@]4(C)[C@@]3(Cl)[C@@H](O)C[C@]2(C)[C@H]1C(=O)COC(=O)C(C)(C)C [Clocortolone pivalate],inactive: -0.381
10,OC(c1cc(C(F)(F)F)nc2c(C(F)(F)F)cccc12)C1CCCCN1 (stereo not given) [Mefloquine hydrochloride],inactive: -1.69
11,CNCCCC12CCC(c3ccccc31)c1ccccc12 [Maprotiline hydrochloride],inactive: -0.0912
12,C[C@]12C=CC(=O)C=C1CC[C@H]1[C@@H]3C[C@@H](O)[C@](O)(C(=O)CO)[C@@]3(C)C[C@H](O)[C@@]12F [Triamcinolone],inactive: 0.152
13,CC1(C)O[C@@H]2C[C@H]3[C@@H]4CCC5=CC(=O)CC[C@]5(C)[C@@]4(F)[C@@H](O)C[C@]3(C)[C@]2(C(=O)CCl)O1 [Halcinonide],inactive: 0.276
14,CCN(CC)C(=O)/C(C#N)=C/c1cc(O)c(O)c([N+](=O)[O-])c1 [Entacapone],inactive: 0.112
15,C[C@@H](O)[C@H]1C(=O)N2C(C(=O)O)=C(S[C@@H]3CN[C@H](C(=O)N(C)C)C3)[C@H](C)[C@H]12 [Meropenem],inactive: 0.541
16,CC(=O)O[C@H]1C[C@@H]2CC[C@@H]3[C@H](CC[C@@]4(C)[C@H]3C[C@H]([N+]3(C)CCCCC3)[C@@H]4OC(C)=O)[C@@]2(C)C[C@@H]1N1CCCCC1 [Vecuronium bromide],inactive: 0.392
17,CCCCN(CCCC)CCC(O)c1cc2c(Cl)cc(Cl)cc2c2cc(C(F)(F)F)ccc12 (stereo not given) [Halofantrine hydrochloride],inactive: -0.232
18,C#C[C@]1(O)CC[C@H]2[C@@H]3CCc4cc(O)ccc4[C@H]3CC[C@@]21C [Ethinylestradiol],inactive: 0.709
19,CCOC(=O)C1=C(C)NC(C)=C(C(=O)OCC)C1c1ccccc1/C=C/C(=O)OC(C)(C)C [Lacidipine],inactive: -0.21
20,CCOc1cc(CC(=O)N[C@@H](CC(C)C)c2ccccc2N2CCCCC2)ccc1C(=O)O [Repaglinide],inactive: -0.108

row,Compound,light-induced TopBP1 condensate (z-score)
1,CC(=O)OCC(=O)[C@@]1(O)[C@H](C)C[C@H]2[C@@H]3CCC4=CC(=O)C=C[C@]4(C)[C@@]3(F)[C@@H](O)C[C@@]21C [Dexamethasone acetate],inactive: 0.214
2,COc1ncnc(NS(=O)(=O)c2ccc(N)cc2)c1OC [Sulfadoxine],inactive: 0.123
3,COc1ccc(C(=O)c2ccccc2)c(O)c1 [Oxybenzone],inactive: -0.628
4,COc1c(N2C[C@@H]3CCCN[C@@H]3C2)c(F)cc2c(=O)c(C(=O)O)cn(C3CC3)c12 [Moxifloxacin],inactive: -0.794
5,CCCCOC(=O)c1ccccc1Nc1cccc(C(F)(F)F)c1 [Ufenamate],inactive: -0.0275
6,COc1ccc(C(=O)CC(=O)c2ccc(C(C)(C)C)cc2)cc1 [Avobenzone],inactive: -0.658
7,Nc1nc2c(ncn2COCCO)c(=O)[nH]1 [Acyclovir],inactive: 0.582
8,CCCCCN(CCCCC)C(=O)C(CCC(=O)O)NC(=O)c1ccc(Cl)c(Cl)c1 (stereo not given) [Lorglumide sodium salt],inactive: -0.914
9,CCCC1O[C@@H]2C[C@H]3[C@@H]4CCC5=CC(=O)C=C[C@]5(C)[C@H]4[C@@H](O)C[C@]3(C)[C@]2(C(=O)CO)O1 (stereo not given in full) [Budesonide],inactive: -0.413
10,CC(C)Cc1ccc(C(C)C(=O)OCc2ccccn2)cc1 (stereo not given) [Ibuprofen Piconol],inactive: -0.445
11,CC(C)(C)C(=O)C(Oc1ccc(Cl)cc1)n1ccnc1 (stereo not given) [Climbazole],inactive: 0.236
12,Cc1ccccc1OCC(O)CO (stereo not given) [Mephenesin],inactive: 0.652
13,C[C@H](N)[C@H](O)c1cccc(O)c1 [Metaraminol bitartrate],inactive: 0.925
14,CCN(CC)CCOC(=O)C(Cc1cccc2ccccc12)CC1CCCO1 (stereo not given) [Nafronyl oxalate],inactive: 0.19
15,CC1(C)S[C@@H]2[C@H](NC(=O)C(C(=O)O)c3ccccc3)C(=O)N2[C@H]1C(=O)O (stereo not given in full) [Carbenicillin disodium salt],inactive: 0.692
16,O=C1CN(/N=C/c2ccc(-c3ccc([N+](=O)[O-])cc3)o2)C(=O)N1 [Dantrolene sodium salt],inactive: 0.14
17,CCOC(=O)n1ccn(C)c1=S [Carbimazole],inactive: 0.956
18,O=C(O)c1ccccc1Nc1cc(Cl)ccc1C(=O)O [Lobenzarit disodium],inactive: 0.707
19,CC1(C)S[C@@H]2[C@H](NC(=O)[C@H](C(=O)O)c3ccsc3)C(=O)N2[C@H]1C(=O)O [Ticarcillin sodium],inactive: 0.209
20,CN[C@@H]1[C@@H](O)[C@@H](O[C@@H]2[C@@H](O)[C@H](O[C@H]3OC(CN)=CC[C@H]3N)[C@@H](N)C[C@H]2N)OC[C@]1(C)O [Sisomicin sulfate],inactive: 0.652
